T1: GIPR (UniProt P48546 22-466, limits assumed)
T1 sequence (looked up): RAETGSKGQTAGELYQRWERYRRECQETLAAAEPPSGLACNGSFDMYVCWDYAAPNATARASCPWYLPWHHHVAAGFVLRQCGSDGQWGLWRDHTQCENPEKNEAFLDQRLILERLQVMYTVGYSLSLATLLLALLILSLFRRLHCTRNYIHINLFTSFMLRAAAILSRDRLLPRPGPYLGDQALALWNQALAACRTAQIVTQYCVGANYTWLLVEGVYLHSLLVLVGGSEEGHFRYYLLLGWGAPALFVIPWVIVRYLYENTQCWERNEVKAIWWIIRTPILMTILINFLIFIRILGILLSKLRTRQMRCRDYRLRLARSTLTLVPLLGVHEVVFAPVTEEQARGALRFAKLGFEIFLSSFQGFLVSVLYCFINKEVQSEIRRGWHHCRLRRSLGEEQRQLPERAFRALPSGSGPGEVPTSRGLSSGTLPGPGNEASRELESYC

B1: HEC-G33 (Fc fusion)
chain: YAEGTFTSDYSKLLEEEAVRLFIEWLLAGGGGGSGGGGSGGGGSA[here human IgG4 Fc with S228P F234A L235A (EU numbers) without letters]
B2: HEC-G43 (Fc fusion)
chain: B1 chain with A2G, K12I, L13Y, E15D, E16K, E17K, V19Q, L21D, I23V
B3: HEC-G79 (Fc fusion)
chain: B1 chain with A2G, K12I, L13Y, E15D, E16K, E17K, V19Q, L21D
B4: HEC-G80 (Fc fusion)
chain: B1 chain with A2G, K12I, L13Y, E15D, E16K, E17K, V19Q, L21D, W25Y
B5: HEC-G14 (Fc fusion)
chain: B1 chain with A2S, L27V, A28K
B6: HEC-G52 (Fc fusion)
chain: B1 chain with A2G, K12I, L13Y, E15D, E16K, E17Q, V19Q, L21D, I23V
B7: HEC-G13 (Fc fusion)
chain: B1 chain with A2S
B8: HEC-G45 (Fc fusion)
chain: B1 chain with A2G, K12I, L13Y, E15D, E16K, E17K, V19Q, L21D, I23V, L27I

Data on eight molecules can be found in US20250223331A1, “GLP-1/GIP DUAL-TARGETED POLYPEPTIDE AND FUSION PROTEIN AND APPLICATIONS THEREOF” (SUNSHINE LAKE PHARMA CO., LTD., priority 2021, published 2025).

Residue numbers refer to the chain shown, from its start.

The target in one assay is T1, GIPR. Briefly: cell-based or functional assay.
For the molecule B1, the “EC50, cAMP” value worked out at 2.23 nM.

On to B2, for which the “EC50, cAMP” value was determined as 4.99 nM.

Turning to B3, the “EC50, cAMP” value turned out to be 0.779 nM.

Turning to B4, the “EC50, cAMP” value was 3.18 nM.

For B5, the “EC50, cAMP” value is 10.1 nM.

As for B6, the “EC50, cAMP” value worked out at 1.21 nM.

As for B7, the “EC50, cAMP” value was determined as 1.73 nM.

Take B8: the “EC50, cAMP” value was 2.42 nM.

A further assay concerns the target GLP-1R (UniProt P43220 24-463, limits assumed). Description: cell-based or functional assay.
As to B1, the “EC50, cAMP” value was found to be 0.391 nM.

On to B2, for which the “EC50, cAMP” value is 0.961 nM.

As to B3, the “EC50, cAMP” value was 3.25 nM.

With B4, the “EC50, cAMP” value turned out to be 1.25 nM.

Regarding B5, the “EC50, cAMP” value came out at 0.114 nM.

For B6, the “EC50, cAMP” value is 2.72 nM.

For B7, the “EC50, cAMP” value is 0.685 nM.

As for B8, the “EC50, cAMP” value is 0.14 nM.
